Measurements reported in the supplement of paper PMC11417369.
This is one part of the list.

What follows are sequences tested on PfAP2-HC AP2 domain (GST-tagged) (assay: gcPBM binding intensity (ln(normalized median fluorescence intensity)); higher = stronger DNA binding).
Procedure, shortened: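 DNA-binding domains from P. falciparum, fused to GST and produced in E. coli, were put on an Agilent 4 × 180k double-stranded probe array for 1 h in 1× PBS holding 1% milk, 0.2 mg/ml BSA, 0.5% salmon testes DNA and 0.03% Triton X-100. Probes were primer-extended, 36 bp long and drawn from intergenic genomic regions, with negative controls included. After Alexa488 anti-GST antibody detection and a 488 nm scan, binding intensity was set as the highest Masliner-normalised natural-log median intensity across replicate spots of either probe orientation.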

| Sequence | gcPBM binding intensity (ln) |
| --- | --- |
| TGTAGTCTGGAGAAGAGTACATAGTATCTGGTAACA [XGTACX_site4944] | 9.63 |
| TATAGGTAAATGGACACACACATATTTATATTTATA [CACACA_site7683] | 10.1 |
| TAATGTTTTTATATCACACACAAATATTAAATGATT [CACACA_site543] | 9.83 |
| TTATTAGGTGTATAATGTACATATAATATATATATA [XGTACX_site3398] | 9.61 |
| ATAGAAGCATCACACTGTACATGGATGAACAGAAAA [XGTACX_site7311] | 9.82 |
| TATAATATAAGGATCACACACAAACAGACATATATA [CACACA_site557] | 10.2 |
| ATAATTTCTTTTACATGTACAAAATTTGCTTATATG [XGTACX_site5388] | 9.78 |
| TATATATATACATACATACACACATATATATATATA [CACACA_site4109] | 9.85 |
| ATATATATAATGTGAAGTACATTTTGTTTACATATT [XGTACX_site8405] | 9.72 |
| TTTACACTTTCCAATAGTACATATTAGAATAATTCT [XGTACX_site7734] | 9.56 |
| TTTATTAAATAATCTCTTTTTATTACATAATAATAA [XGTACX_negctrl_site382] | 9.4 |
| GGATTATTTATAGGAGTGCATACATATATATATATA [GTGCAC_site9454] | 9.87 |
| TAATTTATGGAATATGTGCACTTGCTGATCACTTTT [GTGCAC_site9843] | 9.73 |
| ATTAGCTACAAACAAAGGCTACCTATAGCAAGAGGG [GTGCAC_negctrl_site33] | 9.84 |
| AATTTAATCCGTAATAAGAAAAGAAAAAAAAAAAGA [GTGCAC_negctrl_site129] | 9.55 |
| CCAATACATAGAAACTGTACATTATGCATTATACAC [XGTACX_site3531] | 9.74 |
| AATATCTAAATAAAGTGTACTTACCTTATTAATTAT [XGTACX_site2276] | 9.64 |
| ATCGAAGGGGTACAAAATAAAAATAATTCTTTCAAA [TGCATGCA_negctrl_site373] | 9.38 |
| TATAAATAAATATGGAGTACCAAAAAAATTATAAAA [XGTACX_site7581] | 9.74 |

| Sequence | gcPBM binding intensity (ln) |
| --- | --- |
| AAGTGTTATGAAATATGTACACATATATTATATATA [XGTACX_site6022] | 9.72 |
| ATACAAATTAAGCCTCAAGTTCTTTTTTTTAACATA [XGTACX_negctrl_site580] | 9.5 |
| ATATAACATGGACACACACACATATATATATATTAT [CACACA_site6135] | 10.4 |
| GTGAAATTATATTTTTGTACATATATTATATATTAT [XGTACX_site3387] | 9.86 |
| AAAAAAAAGAATTATTGTACAAAAGAACAATAAATA [XGTACX_site1368] | 9.74 |
| GGTGCACCCATATACACACACAAATACAATGATAAA [CACACA_site1132] | 10.2 |
| ATATATATATATATATGTACATACCCAATTGTGTAA [XGTACX_site6352] | 10.2 |
| ATTTAAAATGGTTATACACACATAAAAGGGGAAATG [CACACA_site2649] | 10.1 |
| TACAGACATACATACACACATACATATATATATATA [CACACA_site1940] | 10.2 |
| AAATATAAAAAAAAAAGTACTTTGTTACTTTTCTAT [XGTACX_site6034] | 9.43 |
| TTTTTATTAAATAAAGCACACACAACAACTTTTCAC [CACACA_site9372] | 10.2 |
| AAAATAAATATAACCACACACGAAAGAGAGAGAAAA [CACACA_site3272] | 10.5 |
| TAACCATAAGAAGATTGTACATAATAAAAGTATTCT [XGTACX_site1117] | 9.63 |
| AACTGCAAAAAAAGACGTACAAATTATTAATTGCAA [XGTACX_site8929] | 9.68 |
| TTCTTTTTTTTTAAAACAAACAAACAAACAAACAAA [CACACA_negctrl_site832] | 9.41 |
| TATTTATTTATTTAGTGTACATTTATATTTGTTCAT [XGTACX_site7575] | 9.81 |
| TTAATCTTTCCTACATGTACACACAGAAAAAAAAAA [XGTACX_site5213] | 9.58 |
| TATCCATATTTGTTCACACACACACCCATTTATATA [CACACA_site3571] | 11 |
| ATTTTTATGTTGAAAAGTACTTGAATCCCATGTAAC [XGTACX_site4453] | 9.5 |

| Sequence | gcPBM binding intensity (ln) |
| --- | --- |
| ATACAAAATCTAATTTGTACACAATGTTTGATTTTT [XGTACX_site5438] | 9.65 |
| AATATAAATAAAAAATTGATTTCTTTAAAAAGGTAT [CACACA_negctrl_site1038] | 9.64 |
| TACAAATGAGAAATATGTACATAAAAAAAAAAAAAT [XGTACX_site801] | 9.9 |
| TTGTTCTTTCAAATTATACACACCAAAAAAAAAAAA [CACACA_site3070] | 9.47 |
| TAATCATAAAAAAATACACACATATATAATATATAT [CACACA_site1983] | 9.98 |
| TATCTTCATTGTTGACGTACAGTATTTCTAAACGTT [XGTACX_site3439] | 9.67 |
| TTTTTTCTTTTTTTTTTTAATTATAAACATGATATT [GTGCAC_negctrl_site144] | 9.47 |
| TAAATATATATAACATGTACATAAAATATATATATA [XGTACX_site4431] | 9.69 |
| TACACATACAGACATACACACATACACATATACACA [CACACA_site6918] | 10.5 |
| CCACTTGTGTAATGTTGTACAAAAATAAATATATTT [XGTACX_site4598] | 9.59 |
| CTATGAACACACACATGTACATATATTAACTCGCTA [XGTACX_site8805] | 9.98 |
| ATAATTAAAAATAATATATATATAATATGATATTAT [GTGCAC_negctrl_site194] | 9.51 |
| CGAGCAAGACGGGGTGCACACAAACTAATATGCCGA [CACACA_site7936] | 9.94 |
| ATTATTATGTAGAAGGTGCTATGTTCTATAAATATA [GTGCAC_site9545] | 9.68 |
| TACCTTTATTAATAAAGTACATTAATCTGTGTATAC [XGTACX_site8720] | 9.61 |
| CATAAAAATGAACATACACACATATATATATATATA [CACACA_site2498] | 9.69 |
| TTGCTTTCTTTTTTTTGTACTCATATCTACTATCAT [XGTACX_site7711] | 9.85 |
| AGGCCTTTTAGTATTTCACACACGTAAATGCGTATA [CACACA_site1108] | 9.76 |
